# Experimental data from the supplement of paper PMC8728848.
# The other results are listed elsewhere or left out.
# How the values were obtained:
# Experiment in all cases: glycan array binding signal (z-score within array); higher = stronger binding
# Settings in all cases: glycan notation: IUPAC condensed, linker removed
# [1] = target: Kdn(a2-3)Gal(b1-4)[Fuc(a1-3)]GlcNAc
# Outline: (§1)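 Glycan array data came from 3228 arrays in the Consortium for Functional Glycomics database, and only arrays with an available protein sequence were kept. Glycan names were put into IUPAC-condensed notation, and columns mapping to the same glycan were averaged. The binding signal is a within-array Z-score, averaged across arrays of one protein sequence run at different concentrations or buffers and across linkers. A negative Z-score can be read as non-binding.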
# [2] = target: Kdn(a2-6)Gal(b1-4)GlcNAc
# Outline: as §1
# [3] = target: Man(a1-2)Man(a1-2)Man(a1-3)Man
# Outline: as §1
# [4] = target: Man(a1-2)Man(a1-2)Man(a1-3)[Man(a1-2)Man(a1-3)[Man(a1-2)Man(a1-6)]Man(a1-6)]Man(b1-4)GlcNAc(b1-4)GlcNAc
# Outline: as §1
# [5] = target: Man(a1-2)Man(a1-2)Man(a1-3)[Man(a1-2)Man(a1-6)[Man(a1-3)]Man(a1-6)]Man(b1-4)GlcNAc(b1-4)GlcNAc
# Outline: as §1
# [6] = target: Man(a1-2)Man(a1-2)Man(a1-6)[Man(a1-3)]Man
# Outline: as §1
# [7] = target: Man(a1-2)Man(a1-3)Man
# Outline: as §1
# [8] = target: Man(a1-2)Man(a1-3)[Man(a1-2)Man(a1-6)]Man
# Outline: as §1
# [9] = target: Man(a1-2)Man(a1-3)[Man(a1-2)Man(a1-6)]Man(a1-6)[Man(a1-2)Man(a1-2)Man(a1-3)]Man
# Outline: as §1
# [10] = target: Man(a1-2)Man(a1-3)[Man(a1-2)Man(a1-6)]Man(a1-6)[Man(a1-2)Man(a1-2)Man(a1-3)]Man(b1-4)GlcNAc(b1-4)GlcNAc
# Outline: as §1
# [11] = target: Man(a1-2)Man(a1-3)[Man(a1-3)[Man(a1-6)]Man(a1-6)]Man(b1-4)GlcNAc(b1-4)GlcNAc
# Outline: as §1
# [12] = target: Man(a1-2)Man(a1-3)[Man(a1-6)]Man(a1-6)[Man(a1-2)Man(a1-3)]Man(b1-4)GlcNAc(b1-4)GlcNAc
# Outline: as §1
# [13] = target: Man(a1-2)Man(a1-6)[Man(a1-3)]Man(a1-6)[Man(a1-2)Man(a1-2)Man(a1-3)]Man
# Outline: as §1
# [14] = target: Man(a1-2)Man(a1-6)[Man(a1-3)]Man(a1-6)[Man(a1-2)Man(a1-2)Man(a1-3)]Man(b1-4)GlcNAc(b1-4)GlcNAc
# Outline: as §1
# [15] = target: Man(a1-3)[Man(a1-6)]Man
# Outline: as §1
# [16] = target: Man(a1-3)[Man(a1-6)]Man(a1-6)[Man(a1-2)Man(a1-3)]Man(b1-4)GlcNAc(b1-4)GlcNAc
# Outline: as §1
# [17] = target: Man(a1-3)[Man(a1-6)]Man(a1-6)[Man(a1-3)]Man
# Outline: as §1
# [18] = target: Man(a1-3)[Man(a1-6)]Man(a1-6)[Man(a1-3)]Man(b1-4)GlcNAc(b1-4)GlcNAc
# Outline: as §1
# [19] = target: Man(a1-3)[Man(a1-6)]Man(b1-4)GlcNAc(b1-4)GlcNAc
# Outline: as §1
# [20] = target: Man(a1-3)[Man(a1-6)]Man(b1-4)GlcNAc(b1-4)[Fuc(a1-6)]GlcNAc
# Outline: as §1
# [21] = target: Man(a1-6)Man
# Outline: as §1
# [22] = target: Man(b1-4)GlcNAc
# Outline: as §1
# [23] = target: MurNAc(b1-4)GlcNAc
# Outline: as §1
# [24] = target: Neu5Ac(a2-3)Gal
# Outline: as §1
# [25] = target: Neu5Ac(a2-3)Gal(b1-3)GalNAc
# Outline: as §1
# [26] = target: Neu5Ac(a2-3)Gal(b1-3)GalNAc(b1-3)Gal(a1-4)Gal(b1-4)Glc
# Outline: as §1
# [27] = target: Neu5Ac(a2-3)Gal(b1-3)GalNAc(b1-4)[Neu5Ac(a2-3)]Gal(b1-4)Glc
# Outline: as §1
# [28] = target: Neu5Ac(a2-3)Gal(b1-3)GalNAc(b1-4)[Neu5Ac(a2-8)Neu5Ac(a2-3)]Gal(b1-4)Glc
# Outline: as §1
# [29] = target: Neu5Ac(a2-3)Gal(b1-3)GalNAc6S
# Outline: as §1
# [30] = target: Neu5Ac(a2-3)Gal(b1-3)GlcNAc
# Outline: as §1
# [31] = target: Neu5Ac(a2-3)Gal(b1-3)GlcNAc(b1-2)Man
# Outline: as §1
# [32] = target: Neu5Ac(a2-3)Gal(b1-3)GlcNAc(b1-2)Man(a1-3)[GlcNAc(b1-4)][Neu5Ac(a2-3)Gal(b1-3)GlcNAc(b1-2)Man(a1-6)]Man(b1-4)GlcNAc(b1-4)GlcNAc
# Outline: as §1
# [33] = target: Neu5Ac(a2-3)Gal(b1-3)GlcNAc(b1-2)Man(a1-3)[Neu5Ac(a2-3)Gal(b1-3)GlcNAc(b1-2)Man(a1-6)]Man(b1-4)GlcNAc(b1-4)GlcNAc
# Outline: as §1
# [34] = target: Neu5Ac(a2-3)Gal(b1-3)GlcNAc(b1-3)Gal(b1-3)GlcNAc
# Outline: as §1
# [35] = target: Neu5Ac(a2-3)Gal(b1-3)GlcNAc(b1-3)Gal(b1-4)GlcNAc
# Outline: as §1
# [36] = target: Neu5Ac(a2-3)Gal(b1-3)GlcNAc(b1-3)GalNAc
# Outline: as §1
# [37] = target: Neu5Ac(a2-3)Gal(b1-3)GlcNAc(b1-4)Gal(b1-4)Glc
# Outline: as §1
# [38] = target: Neu5Ac(a2-3)Gal(b1-3)GlcNAc(b1-6)GalNAc
# Outline: as §1
binder,measurement,setting,value
XL-35 (Xenopus laevis) (protein) MLVHILLLLVTGGLSQSCDPVVIVASKNMVKQLDCDKFRNCKEIKDSNEEAQDGIYTLTSPDGISYQTFCDMTTNGGGWTLVASVHENNMAGKCTIGDRWSSQQGNRADYPEGDGNWANYNTFGSAGGATSDDYKNPGYYDIEAYNLGVWHVPNKTPLSVWRNSSLQRYRTTDGILFKHGGNLFSLYRIYPVKYGIGSCSKDSGPTVPVVYDLGSANLTASFYSPGFRSQFTPGYIQFRPINTEKAALALCPGMKMESCNVEHVCIGGGGYFPEADPRQCGDFAAYDFNGYGTKKFNSAGIEITEAAVLLFYL,glycan array binding signal (z-score),[1],-0.248
same,glycan array binding signal (z-score),[2],-0.07
same,glycan array binding signal (z-score),[3],-0.029
same,glycan array binding signal (z-score),[4],-0.113
same,glycan array binding signal (z-score),[5],-0.09
same,glycan array binding signal (z-score),[6],-0.1
same,glycan array binding signal (z-score),[7],0.041
same,glycan array binding signal (z-score),[8],-0.108
same,glycan array binding signal (z-score),[9],-0.668
same,glycan array binding signal (z-score),[10],-0.156
same,glycan array binding signal (z-score),[11],-0.086
same,glycan array binding signal (z-score),[12],-0.092
same,glycan array binding signal (z-score),[13],-0.347
same,glycan array binding signal (z-score),[14],-0.161
same,glycan array binding signal (z-score),[15],-0.233
same,glycan array binding signal (z-score),[16],-0.384
same,glycan array binding signal (z-score),[17],-0.458
same,glycan array binding signal (z-score),[18],0.065
same,glycan array binding signal (z-score),[19],-0.061
same,glycan array binding signal (z-score),[20],-0.239
same,glycan array binding signal (z-score),[21],-0.215
same,glycan array binding signal (z-score),[22],0.018
same,glycan array binding signal (z-score),[23],0.061
same,glycan array binding signal (z-score),[24],-0.17
same,glycan array binding signal (z-score),[25],-0.265
same,glycan array binding signal (z-score),[26],0.104
same,glycan array binding signal (z-score),[27],-0.105
same,glycan array binding signal (z-score),[28],0.436
same,glycan array binding signal (z-score),[29],-0.097
same,glycan array binding signal (z-score),[30],-0.015
same,glycan array binding signal (z-score),[31],-0.032
same,glycan array binding signal (z-score),[32],-0.234
same,glycan array binding signal (z-score),[33],-0.181
same,glycan array binding signal (z-score),[34],0.073
same,glycan array binding signal (z-score),[35],-0.233
same,glycan array binding signal (z-score),[36],-0.379
same,glycan array binding signal (z-score),[37],-0.437
same,glycan array binding signal (z-score),[38],-0.059
